Data: PMC4336329 (PLoS ONE, 2015)
About 2,200 (0.71%) of roughly 310,000 compounds showed an effect of 50% or more. The effect is printed as a negative number. The list shows a part of the results.

Target: human ether-à-go-go-related gene (hERG) potassium channel (human, UniProt Q12809)
Assay: primary screen, population patch clamp on CHO cells stably expressing hERG

Sequence of human ether-à-go-go-related gene (hERG) potassium channel (Q12809 whole entry, looked up): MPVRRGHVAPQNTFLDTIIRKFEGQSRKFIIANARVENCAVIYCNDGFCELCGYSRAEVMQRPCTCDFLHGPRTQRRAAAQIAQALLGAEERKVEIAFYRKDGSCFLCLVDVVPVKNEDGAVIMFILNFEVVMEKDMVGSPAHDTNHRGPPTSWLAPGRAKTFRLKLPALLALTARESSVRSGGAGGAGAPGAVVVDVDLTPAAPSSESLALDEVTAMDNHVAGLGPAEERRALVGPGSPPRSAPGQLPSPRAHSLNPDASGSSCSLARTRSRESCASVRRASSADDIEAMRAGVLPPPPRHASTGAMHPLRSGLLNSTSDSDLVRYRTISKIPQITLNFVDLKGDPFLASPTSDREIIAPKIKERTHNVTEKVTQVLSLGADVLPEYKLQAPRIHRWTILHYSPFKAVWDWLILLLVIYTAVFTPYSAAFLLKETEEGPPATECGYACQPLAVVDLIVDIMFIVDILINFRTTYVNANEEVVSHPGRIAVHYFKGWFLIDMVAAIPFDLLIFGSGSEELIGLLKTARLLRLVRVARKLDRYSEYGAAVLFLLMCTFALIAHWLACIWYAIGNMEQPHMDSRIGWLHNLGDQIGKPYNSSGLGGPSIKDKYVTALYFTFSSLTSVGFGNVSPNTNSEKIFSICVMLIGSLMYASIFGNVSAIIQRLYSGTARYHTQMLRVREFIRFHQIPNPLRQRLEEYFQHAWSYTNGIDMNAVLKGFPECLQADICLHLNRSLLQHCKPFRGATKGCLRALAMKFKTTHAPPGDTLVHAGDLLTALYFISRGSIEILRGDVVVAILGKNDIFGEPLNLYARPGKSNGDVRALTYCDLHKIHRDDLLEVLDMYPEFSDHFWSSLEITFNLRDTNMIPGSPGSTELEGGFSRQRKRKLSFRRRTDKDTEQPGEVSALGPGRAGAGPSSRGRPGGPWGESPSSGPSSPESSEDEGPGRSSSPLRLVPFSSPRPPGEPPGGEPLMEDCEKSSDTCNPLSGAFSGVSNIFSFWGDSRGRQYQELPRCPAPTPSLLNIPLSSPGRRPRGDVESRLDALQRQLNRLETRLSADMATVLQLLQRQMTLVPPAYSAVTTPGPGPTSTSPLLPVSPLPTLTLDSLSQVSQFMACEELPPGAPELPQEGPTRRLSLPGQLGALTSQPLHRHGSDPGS

| SMILES | hERG current change (%, negative = inhibition) at 1uM |
| --- | --- |
| CNC(=S)N/N=C/c1cc(C)ccc1C | 5.85% |
| O=C1NC(=O)[C@]2(Cc3ccccc3N3CCN(c4ccccc4)CC32)C(=O)N1c1ccccc1 (stereo partly shown) | -0.115% |
| CCOC(=O)[C@@H]1[C@H]2COc3ccc(Br)cc3[C@H]2N2C(=O)N(c3ccc(Br)cc3)C(=O)[C@]12C | 9.6% |
| CCCCCn1c(NC2CCCCC2)nc2c1c(=O)[nH]c(=O)n2C | 4.15% |
| CSCC(=O)N1CCCC(CNC(=O)c2ccc(-c3ccccc3)cc2)C1 (stereo not shown) | -1.78% |
| CCc1nc(NCCO)c(C#N)c2c1CCCC2 | 13.4% |
| O=c1cc(-c2ccccc2)nc2cc(-c3ccc(Br)cc3)[nH]n12 | 14.9% |
| Cc1nnc(NC(=O)c2nc(S(=O)(=O)Cc3ccccc3)ncc2Cl)s1 | 5.07% |
| Cc1ccc2cc(CCNC(=O)CCCc3ccccc3)c(=O)[nH]c2c1 | 13.5% |
| O=C(COC(=O)c1cccc2ccccc12)NCCCc1ccccc1 | 6.33% |
| CCOC(=O)C1/C(=N\O)CC(C)(O)C(C(=O)OCC)C1c1ccc(N(C)C)cc1 (stereo not shown) | 12.6% |
| O=C(COc1ccc(F)cc1)N(Cc1ccco1)C1CCS(=O)(=O)C1 (stereo not shown) | 7.32% |
| O=c1cnn(-c2ccccc2)c(-c2ccccc2)c1 | 7.62% |
| COC(=O)CCCC1=CC2=C(c3ccccc3)C(=O)C(C)(OC(=O)C3CCCC3)C(=O)C2=CN1CCN1CCOCC1 (stereo not shown) | 8.02% |
| CC(C)(C)c1ccc(Oc2ccc(NC(=O)C3CC=CCC3C(=O)O)cc2)cc1 (stereo not shown) | 9.61% |
| CC(OC(=O)c1cn(-c2ccccc2)nc1-c1cccnc1)C(N)=O (stereo not shown) | 3.31% |
| Cc1ccccc1C(=O)NNC(=O)c1cccn1C | -0.066% |
| CSc1cccc(NS(=O)(=O)c2ccc(F)cc2)c1 | 7.73% |
| COc1ccc(/C=C/C(=O)NCCc2ccc(OC)c(OC)c2)cc1 | -0.514% |
| O=C(CN1C(=O)/C(=C/c2ccccc2)Sc2ccccc21)NCCCN1CCOCC1 | 10.3% |
| COC(=O)/C=c1/sc2n(c1=O)CCN=2 | 8.53% |
| c1cncc(-c2cnc3ccccc3c2)c1 | 12.2% |
| CC(C)CCNC(=O)CCc1nnc(Cc2c[nH]c3ccccc23)o1 | 12.1% |
| Cc1nc(-c2ccccc2)sc1C1(C)CC(c2ccc([N+](=O)[O-])cc2)=NO1 (stereo not shown) | 14.8% |
| Cc1cc(NS(=O)(=O)c2ccc(NC(=O)N[C@H](C(=O)O)C(C)C)cc2)no1 | 39.8% |
| CCCCC1=CC2=C(c3ccco3)C(=O)C(C)(OC(=O)c3ccc(OC)cc3)C(=O)C2=CN1c1ccccc1 (stereo not shown) | 12.6% |
| COc1ccc(OC)c(CN2CCC(C(=O)N(C)CCc3ccc(OC)c(OC)c3)CC2)c1.O=C(O)C(=O)O | 4.75% |
| Cc1ccc(NS(=O)(=O)c2cc(Br)cnc2N)cc1C | 10.5% |

| SMILES | hERG current change (%, negative = inhibition) at 1uM |
| --- | --- |
| O=[N+]([O-])c1ccc(F)cc1F | 8.57% |
| CC#CCN1c2ccccc2[C@]23C[C@@H](C(=O)OC)N(C(C)=O)C2=NC(C(=O)OC)=C(C(=O)OC)[C@H]13 | 6.12% |
| CCN(CC)S(=O)(=O)c1ccc2nc(CCl)[nH]c2c1 | -5.27% |
| O=C(NC1CCCC1)C1CCC(CNS(=O)(=O)c2cccs2)CC1 (stereo not shown) | -1.74% |
| CC(=O)CSc1nc2cc3c(cc2cc1C#N)OCCO3 | 10.8% |
| Cc1nc(NC(=O)c2cccc(Cl)c2)sc1C(=O)N1CCCCC1 | 15.4% |
| Cc1c(C(=O)Nc2ccccc2-c2ccccc2)cccc1[N+](=O)[O-] | -3.24% |
| COc1cccc(N2C(=O)CC(N3CCC(C(N)=O)(N4CCCCC4)CC3)C2=O)c1 (stereo not shown) | 0.148% |
| CC1Cc2ccccc2N1C(=O)COC(=O)c1cc(Br)ccc1O (stereo not shown) | 15.6% |
| Cc1cc2c(cc1C)C(c1cc(Br)ccc1F)CC(=O)N2 (stereo not shown) | 6.17% |
| O=C(COc1ccc(Cl)cc1)Nc1ccc(NC(=O)c2ccco2)cc1 | 14.4% |
| O=C(NC1CCCC1)C(c1ccncc1)N(C(=O)c1csnn1)C1CCCC1 (stereo not shown) | 2.4% |
| C=CCn1c(C)c(C(C)=O)c(SC)nc1=S | -8.31% |
| c1ccc(Cn2nnc(CNc3ccccc3)c2-c2c(CNc3ccccc3)nnn2Cc2ccccc2)cc1 | 7.46% |
| O=C(c1ccc2ccccc2c1)C1CCCN(C(=O)c2cnccn2)C1 (stereo not shown) | 4.65% |
| N/C(=N\OC(=O)c1cc(-c2ccccc2)nc2ccccc12)c1ccccn1 | 11.9% |
| COc1ccccc1N1CCN(C(=O)C2CCN(S(=O)(=O)c3ccccc3)CC2)CC1 | 0.673% |
| NS(=O)(=O)c1ccc(CCNC(=O)CNCCc2ccccc2)cc1 | 14.8% |
| CCOc1cc(C(c2c(C)[nH][nH]c2=O)c2c(C)[nH][nH]c2=O)ccc1O | 5.19% |
| O=C(COc1ccc(=O)n(-c2ccccc2)n1)Nc1ccccc1 | 4.75% |
| CCCCCOC(=O)Cn1c(N2CCCCCC2)nc2c1c(=O)[nH]c(=O)n2C | 3.51% |
| COCCN(CCOC)S(=O)(=O)c1ccc(C(=O)Nc2ccncc2)cc1 | 8.14% |
| O=C(c1ccco1)N1CCN(S(=O)(=O)c2c(Cl)cccc2Cl)CC1 | 4.68% |
| CC(C)c1cc(CNC(=O)CCc2nnc(CCCCc3ccccc3)o2)on1 | 6.12% |
| C=C(C)CSc1nc(N)c2c3c(sc2n1)CCC3 | -1.87% |
| c1ccc(-c2nnc(SCc3nc4ccccc4[nH]3)n2Cc2ccco2)nc1 | -0.975% |
| N#Cc1c(C(F)(F)F)cc(-c2ccc(F)cc2)[nH]c1=O | 12.7% |
